Assay results from PubChem BioAssay AID624418 (National Center for Advancing Translational Sciences (NCATS), 2012).
The whole screen tested about 410,000 compounds, of which about 530 (0.13%) were called active. The inconclusive results got no clear call from the source; some entries with a clear call stand among them for comparison. Calls follow the shape of the dose curve; as a rule, active = well fitted inhibition curve with a large enough effect; inconclusive = small, poorly fitted or top-dose-only effect, or another doubt; inactive = no such curve, though single readings can be large or run the other way. Potencies beside an inconclusive call are fits to weak or partial responses and may not hold up.

Experiment: qHTS of GLP-1 Receptor Inverse Agonists: Cytotox Screen
Conditions: HEK293 cAMP-luciferase reporter cells, luminescence, 24 h; activity change, negative = inhibition: at 38.3 µM (top of the series) unless noted
In short: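 To flag toxic compounds, the library was rerun on cells for 24 hr at 37 deg C and 5% CO2. Viability-linked luminescence was captured 12 min after adding luciferase detection reagent.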
% is scaled to controls: 0 for no effect and ±100 for the full control effect; potency is read from the fitted curve at half-maximal effect.

Row | Structure (SMILES) | Potency | activity change, negative = inhibition
1 | CC1CCN(CCc2nc3cc(NC(=O)COc4ccc(Cl)cc4)ccc3n2C)CC1 | inconclusive: 10 µM [inhibitor, partial curve, poor fit] | 
2 | O=C(N/N=C/C(Br)=C/c1ccccc1)c1cccnc1 | inconclusive: 11.2 µM [inhibitor, single point] | 
3 | Cc1[nH]n(C(N)=S)c(=O)c1N=Nc1cccc(Cl)c1 | inconclusive: 0.501 µM [inhibitor, full curve, poor fit] | 
4 | COCCN(Cc1ccccc1)C(=S)Nc1ccc(Cl)cc1 | inconclusive: 10 µM [inhibitor, partial curve, poor fit] | 
5 | CCNC(=S)N/N=C/c1ccc(-c2ccccc2)o1 | inconclusive: 2.51 µM [inhibitor, partial curve, poor fit] | 
6 | CCN1/C(=C/C=C/c2oc3ccc4ccccc4c3[n+]2CC)Oc2ccc3ccccc3c21 | inconclusive: 1.26 µM [inhibitor, full curve, poor fit] | 
7 | O=C(O)COc1ccccc1/C=C1\SC(=Nc2ccc(F)cc2)N(c2ccc(F)cc2)C1=O | inconclusive: 28.2 µM [inhibitor, single point] | 
8 | O=C(Nc1ccccc1)NC1(C(=O)NCc2ccco2)CCCCC1 | inconclusive: 8.91 µM [inhibitor, partial curve, poor fit] | 
9 | Fc1ccc(CNC(=S)NCc2ccccc2)cc1 | inconclusive: 22.4 µM [inhibitor, single point] | 
10 | COc1ccc(/C=N/N(Cc2ccccc2)c2ccccc2)cc1O | inconclusive: 11.2 µM [inhibitor, partial curve, poor fit] | 
11 | CCOC(=O)N1CCC(c2cc(=O)n3[nH]c(C)c(-c4ccc(F)cc4)c3n2)CC1 | inconclusive: 11.2 µM [inhibitor, single point] | 
12 | CCOc1cc(C2NN=C(c3ccccc3)S2)ccc1OCc1ccccc1Cl (stereo not given) |  | inactive: -5.97%
13 | COc1ccc2oc(C(=O)N(C)Cc3ccc(OC(F)F)cc3)c(C)c2c1 |  | inactive: 3.45%
14 | CC1CCN(C(=O)CSc2nc3ccccc3nc2Cc2ccccc2)CC1 |  | inactive: -7.51%
15 | CC(C)n1cnc2c(Nc3cccc(F)c3)nc(NCCO)nc21 | inconclusive: 11.2 µM [inhibitor, single point] | 
16 | O=C(NC(=S)N1CCc2ccccc21)c1ccccc1Br | inconclusive: 2.51 µM [inhibitor, full curve, poor fit] | 
17 | CCOC(=O)CSc1cc(-c2ccccc2)nc2ncnn12 | inconclusive: 28.2 µM [inhibitor, single point] | 
18 | COc1ccc(-c2cnc3c(NC(C)=O)cc(-c4ccccc4OC)cn23)cc1OC | inconclusive: 28.2 µM [inhibitor, single point] | 
19 | CC(C)c1ccc2occ(CC(=O)N(Cc3ccc(F)cc3)C3CCS(=O)(=O)C3)c2c1 (stereo not given) | inconclusive: 31.6 µM [inhibitor, single point] | 
20 | Cc1ccc(-c2csc(NC(=S)NC(=O)/C=C/c3ccco3)n2)cc1 | inconclusive: 0.891 µM [inhibitor, full curve, poor fit] | 
21 | O=C(Nc1ccccc1)N(Cc1cccc(Cl)c1)c1ccccn1 |  | inactive: 5.35%
22 | COc1cccc(/C=N/Nc2nc(-c3cccnc3)nc3ccccc23)c1 | inconclusive: 14.1 µM [inhibitor, single point] | 
23 | COc1ccc(NC(=O)c2nc[nH]c2C(=O)N[C@H](C)c2ccccc2)cc1 |  | inactive: -7.01%
24 | CCN(CC)c1ccc(/C=N/NC(=S)NCc2ccco2)cc1 | inconclusive: 2.82 µM [inhibitor, full curve, poor fit] | 

Row | Structure (SMILES) | Potency | activity change, negative = inhibition
25 | Cc1cc(C(=O)CSc2nnc(-c3ccc(F)cc3)o2)c(C)n1CC1COc2ccccc2O1 (stereo not given) | inconclusive: 10 µM [inhibitor, single point] | 
26 | COc1ccccc1OCCN1CSC(=S)N(C)C1 | inconclusive: 11.2 µM [inhibitor, single point] | 
27 | CCOC(=O)c1ccc(NC(=S)N(CCN2CCCCCC2)Cc2ccco2)cc1 | inconclusive: 12.6 µM [inhibitor, single point] | 
28 | Cc1cccc(C(=O)NC2=NC(c3ccc(Cl)cc3)CC(=O)N2)c1 (stereo not given) |  | inactive: 3.4%
29 | CCOC(=O)c1ccc(NC(=O)Cn2ncc(Cl)c(Cl)c2=O)cc1 | inconclusive: 6.31 µM [inhibitor, partial curve, poor fit] | 
30 | COc1ccc(NC(=O)CN2CCC(C)CC2)c([N+](=O)[O-])c1 | inconclusive: 6.31 µM [inhibitor, partial curve, poor fit] | 
31 | Cc1cc(F)ccc1NC(=O)CS(=O)(=O)c1cccc2nsnc12 |  | inactive: 1.62%
32 | CCN(CC)S(=O)(=O)c1cc(NC(=O)c2cc(-c3ccccn3)nc3ccccc23)ccc1C | inconclusive: 0.891 µM [inhibitor, full curve, poor fit] | 
33 | O=C(Nc1cccc(Cl)c1)C1CCCN(c2ncnc3c2nc2n3CCCCC2)C1 (stereo not given) | inconclusive: 0.398 µM [inhibitor, full curve, poor fit] | 
34 | O=C1/C(=C\c2cc(Cl)c(O)c(Cl)c2)SC(=S)N1Cc1ccccc1 |  | inactive: 11%
35 | C=CCNC(=O)COC(=O)c1ccc(Cl)c(S(N)(=O)=O)c1 | inconclusive: 28.2 µM [inhibitor, single point] | 
36 | CCCCNC(=S)N/N=C/c1cccc(OCC)c1O | inconclusive: 0.562 µM [inhibitor, full curve, poor fit] | 
37 | N#Cc1ccc(S(=O)(=O)N2CCC(N3CCCCC3)CC2)cc1 | inconclusive: 0.501 µM [inhibitor, full curve, poor fit] | 
38 | Oc1ccc(NCc2ccc(OCc3ccccc3)cc2)cc1 | inconclusive: 10 µM [inhibitor, single point] | 
39 | CCN(CC)S(=O)(=O)c1ccc2c(c1)N(CC(=O)NCCCN1CCN(c3cc(Cl)ccc3C)CC1)C(=O)CO2 | inconclusive: 28.2 µM [inhibitor, single point] | 
40 | CCOc1ccccc1C1N=C(c2ccc(OC)cc2)CC(c2ccccc2O)N1 (stereo not given) |  | inactive: -0.355% [at 0.307 µM]
41 | Cc1ccc(/C=N/NC(=O)c2cc(C)oc2C)cc1 | inconclusive: 5.01 µM [inhibitor, partial curve] | 
42 | CN(C)CCCNc1cc(C(C)(C)C)nc2c(-c3ccccc3)cnn12 | inconclusive: 28.2 µM [inhibitor, single point] | 
43 | CCCCCCCCNC(=O)/C(C#N)=C/c1ccc2c(c1)OCCO2 |  | inactive: 4.32%
44 | O=C(NCc1ccccc1)C(c1ccc(-c2ccccc2)cc1)N1CCN(C(=O)C2CCCO2)CC1 (stereo not given) |  | inactive: -26.5%
45 | CCCCCCCNC(=O)c1cc(-c2ccncc2)nc2ccccc12 |  | inactive: -0.939%
46 | O=[N+]([O-])c1cccc(OCCN2CCC(Cc3ccccc3)CC2)c1 | inconclusive: 31.6 µM [inhibitor, single point] | 
47 | NNC(=S)NC1CCCCCCCCCCC1 | inconclusive: 6.31 µM [inhibitor, partial curve, poor fit] | 
48 | COc1ccc(-c2nn(-c3ccccc3)cc2C(=O)O)cc1OC |  | inactive: 4.01%

Row | Structure (SMILES) | Potency | activity change, negative = inhibition
49 | CCN1CCN(C(c2ccc(F)cc2)c2sc3nc(-c4ccco4)nn3c2O)CC1 (stereo not given) |  | inactive: -13.1%
50 | CC(=O)n1cc(N(C(=O)CCl)c2ccc(Cl)cc2)c2ccccc21 | inconclusive: 8.91 µM [inhibitor, partial curve] | 
51 | COCn1c(-c2cccc(Br)c2)nc2ccccc21 |  | inactive: 14.5%
52 | COc1ccccc1N1CCN(C(=O)CCc2nnc3ccc(N4CCC(C)CC4)nn23)CC1 | inconclusive: 28.2 µM [inhibitor, single point] | 
53 | COc1cc(NC(=O)CSc2ncnc3sc4c(c23)CCC(C)C4)c(C(=O)O)cc1OC (stereo not given) |  | inactive: -8.67%
54 | CCc1ccc2c(c1)c(N=NC1=NC(=O)CS1)c(O)n2CC | inconclusive: 11.2 µM [inhibitor, single point] | 
55 | COc1ccc(CNC(=O)c2cccn2-c2nnc(N3CCCCC3)s2)c(OC)c1 |  | inactive: -0.46%
56 | O=C(CCc1ccccc1)Nc1ccc(N2CCCCC2)cc1 |  | inactive: -9.98%
57 | COc1ccc(C(=O)c2ccccc2)cc1 | inconclusive: 28.2 µM [inhibitor, single point] | 
58 | CCCCn1nnnc1C(c1cc2ccccc2o1)N1CCN(C/C=C/c2ccccc2)CC1 (stereo not given) | inconclusive: 15.8 µM [inhibitor, single point] | 
59 | Cc1ccc(Nc2nc(Nc3ccc(C)cc3)nc(SC3=NCCS3)n2)cc1 | inconclusive: 31.6 µM [inhibitor, single point] | 
60 | CN(CCOC(=O)c1cccc(F)c1)Cc1ccccc1 | inconclusive: 28.2 µM [inhibitor, single point] | 
61 | Cc1ccc(C2=NNC3(CCOC(C)(C)C3)S2)cc1 (stereo not given) |  | inactive: -11.8%
62 | C/C(=N\Nc1nc(C)cc(-c2ccccc2)n1)c1ccc(O)cc1 | inconclusive: 10 µM [inhibitor, partial curve, poor fit] | 
63 | CCOc1ccc(NC(=S)N2CCC(c3nc4ccccc4[nH]3)CC2)cc1 | inconclusive: 28.2 µM [inhibitor, partial curve, poor fit] | 
64 | O=C1NC(=S)N/C1=C/c1cccc2ccccc12 |  | inactive: -4.72%
65 | CCc1ccc(Nc2ncnc3nc[nH]c23)cc1 |  | inactive: -5.81%
66 | Cc1nn(CCC(=O)Nc2ccccc2Br)c(=O)c2nn(-c3ccccc3)c(C)c12 |  | inactive: 24.8%
67 | CCN(CC)CCP(=O)(c1ccccc1)c1ccccc1 | inconclusive: 31.6 µM [inhibitor, single point] | 
68 | O=c1cc(C(F)(F)F)nc(SCc2cccc3ccccc23)[nH]1 | inconclusive: 0.562 µM [inhibitor, full curve] | 
69 | CCOC(=O)Cn1c(=O)oc2cc(S(=O)(=O)N3CCN(c4ccc(F)cc4)CC3)ccc21 |  | inactive: -0.0911%
70 | Cc1cc(C)c2sc(N(CCCN(C)C)C(=O)c3ccc(S(=O)(=O)N(C)Cc4ccccc4)cc3)nc2c1 | inconclusive: 14.1 µM [inhibitor, single point] | 
